These are yes or no findings as the source states them, for the method shown. Some binding calls cover weakened binding; strength is not graded here. Sequences can lack the tags named with a protein. Values belong to the binder of their own block, whether it stands above or below them.
Experiments:
[1] = target: Dishevelled (Dsh), full length, yeast two-hybrid fusion (Drosophila) (UniProt P51140); assay: two-hybrid; yeast strain AH109, Matchmaker Two-Hybrid System 3 (pGADT7 and pGBKT7 cotransformed); growth on SD/-Ade/-His/-Leu/-Trp with X-alpha-Gal taken as positive
[2] = target: T1, human WDPCP (frtz homolog), yeast two-hybrid fusion (human) (UniProt O95876); assay: as above
T1 sequence: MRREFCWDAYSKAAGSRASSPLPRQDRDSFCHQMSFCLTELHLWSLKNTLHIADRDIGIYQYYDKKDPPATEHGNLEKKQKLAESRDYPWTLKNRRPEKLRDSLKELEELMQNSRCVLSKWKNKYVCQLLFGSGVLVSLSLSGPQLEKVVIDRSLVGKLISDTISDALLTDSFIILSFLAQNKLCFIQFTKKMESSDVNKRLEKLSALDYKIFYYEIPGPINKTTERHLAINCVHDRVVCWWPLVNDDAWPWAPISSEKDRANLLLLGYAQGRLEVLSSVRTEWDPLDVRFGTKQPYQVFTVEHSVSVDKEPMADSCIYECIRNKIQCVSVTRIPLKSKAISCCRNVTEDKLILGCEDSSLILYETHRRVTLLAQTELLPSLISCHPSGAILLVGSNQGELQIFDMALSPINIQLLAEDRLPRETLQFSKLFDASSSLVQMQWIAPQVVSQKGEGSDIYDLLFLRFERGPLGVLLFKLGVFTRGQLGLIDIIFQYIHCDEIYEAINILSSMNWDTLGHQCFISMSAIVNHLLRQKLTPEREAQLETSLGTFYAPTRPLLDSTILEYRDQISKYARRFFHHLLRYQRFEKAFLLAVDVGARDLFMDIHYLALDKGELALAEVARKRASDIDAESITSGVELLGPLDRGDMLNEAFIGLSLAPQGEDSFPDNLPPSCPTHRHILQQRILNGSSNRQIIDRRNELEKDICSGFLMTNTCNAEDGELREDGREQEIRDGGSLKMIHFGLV

Chains of the proteins cited; added tags and fusions are not shown.
UniProt P51140: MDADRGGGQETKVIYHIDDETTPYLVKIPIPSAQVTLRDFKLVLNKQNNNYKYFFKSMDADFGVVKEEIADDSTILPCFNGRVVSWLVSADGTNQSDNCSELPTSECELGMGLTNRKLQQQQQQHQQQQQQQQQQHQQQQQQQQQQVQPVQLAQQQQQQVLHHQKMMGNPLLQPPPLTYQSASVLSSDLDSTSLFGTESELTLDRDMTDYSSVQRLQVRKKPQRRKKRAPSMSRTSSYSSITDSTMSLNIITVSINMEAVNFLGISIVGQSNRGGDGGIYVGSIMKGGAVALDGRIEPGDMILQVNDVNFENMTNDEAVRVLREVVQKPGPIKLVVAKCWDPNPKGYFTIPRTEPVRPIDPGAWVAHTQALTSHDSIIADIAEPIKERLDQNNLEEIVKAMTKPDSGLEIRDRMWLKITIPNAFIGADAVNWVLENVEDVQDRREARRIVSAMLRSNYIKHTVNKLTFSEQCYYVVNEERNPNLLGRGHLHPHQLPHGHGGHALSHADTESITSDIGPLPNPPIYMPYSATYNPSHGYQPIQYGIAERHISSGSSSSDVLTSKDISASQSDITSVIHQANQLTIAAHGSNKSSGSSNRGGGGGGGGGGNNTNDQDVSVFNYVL

B1: Frtz with aa 600-700 deleted (protein, UniProt Q9VQ36)
chain: MLLSETHFWTTLREDVVRIKSQDLGAFRYLRQRDKEQEQQDLACLAKRDYTERRNGLAVLKNSGRKSTGRLKDNLKKLEDLLRQHRIIHSEWQDAAQVLLLFSHGLIAHICVDIYTGDILRMVFEKYLVGKLASEVITDAFFTRSHIVLAYNTNQLTVVHLQRPNARSQGPEKIANMDPRIFHVIIPGATERKLSRHLTVNASFDLFVVWTQSSQNEVYPWRPTIRDQDRANIHVFKIKGLQLESIAYCWSENDPLCVDFLRSSESQIITLEQKVSRKGDISAEICSYELAAGKMQRTAITSIPMGAQICSFAFSPDQEKLFLGSVDRNICLHDLVQQSTKYANQIEIVPNQCAWHCDSAMLCVANERSVLQCFDLALATIGHQLVSENVTPSSLLDLSHYFVAQPTLLSVAFSRKPDLSTFKHTYAQTDCLLLLVYEQGPLACMRIFGGTGMRGDIHNSGLTADVIADKYLRLQQPDRAVNVLAALNWETYGAMCLITLHKIANYVFFGGDQRRPRIELMARALKTFAHTLSEETKDEFSDQVYDLKRRFCFYLLRKNLFAEAFEIAQDVADYDIFMDLYNLTKCISSLSEFAQVAFSPTSSLASLTLKSNSSLQQAPAKSLHPNGNLWSQDVPDQTVGLPMASSPLPRLPPSNIPDQSAQLGQFSTMPASPPPTGSYQPKFYQHPLVSGNIPAMLPSLTSEDYQKRLLQKKPTASILSNPANPAPTNGEAPATPAKSQTAEKNKVKFSDTIQVAVVPEIPRKEKPMPPKRNGYSRPAARHLTNPKKELADSLPLCHPNDEYLKDFNPITTNVTKPPIRRREEEPKSSSKGGNSSSSSSSIKVVHFGVV
binding [1]: binds

B3: Inturned (In), yeast two-hybrid fusion (protein, UniProt Q9VPH0 1-869)
chain: MRKSPASLPSEAFSSSNSSLSNSYSDGSDLANWEEYVSTDGSLFYMEYVRCEKTGVSAERRVEFMRRSLRLGKKSSRRQPHSNNQNQSQNQNQSHGPSRLDSQTEPQEFRFSQFKTAAPDPKKLDLVITAADRFRFGRRSTAVESILGFRVLPFPDQPECLMVDGFVHDVSALQHGIKRGDWFRSLNGIEVYASNVDELLKQFVEPTQVCLGFQSCGAASAVSPTDPGYNRNVREEQVCKVENFPMFTEKFEQMLITEGNFGIPGSSVDIRMPFAMLLLPPECYQHEQQQDSLYYFPEIPDNFLFKARGSFLTLHAVLSELHTQPLSSRLLVDQVQYHVNYRQLNGFLVLFAYAGGLCCAAECSLRSDELIGYIRFSLPGLVLESFNQEREPGNSSRLKLFLRHFCEIQRTRLVARCHGHIRFEELLGQSRSLPLPKEAQLRIFDALSEMEAMDYRNWNDEPLTTHREFFIYGSALYYDGFLVASLLPPEVRVSVEGFLRCRGIFELLGAAPGIKVREMYVWEEIVLPSATGRYFLTICTKNHLSLAVILKIFDAPDMAPDAVVGPSLFYIEEIQETLDHLVQCGIESLAMFWSVSNKRPEVLDATASESRDQEKEPNNRLESFLKQKLTVLSPSVEEEAQLCSSLGGSSIHSLTPSEDESCRRRLTPIHGTAEDSDSGSDWENFAVQHPLHYGLNLGAESHSQSQMTESMWKEINNVVPVKISAGWKNSVLHYVYIDIANGSLFAPFTDSSENSNYLSEIRQACHIIHAVLQKSKHYRRHLSESSRAQTNSNGHSSHTVSLVKEHGMILEVSTQPKSDGQSQSSTSSRFVVVGRLFQSPAKEVYVCHRSDVPQNIVEMAFRLSFFSMG
binding [1]: no binding

Continued, values first:

binding [1]: no binding
B2: Frtz with aa 700-800 deleted (protein, UniProt Q9VQ36)
chain: MLLSETHFWTTLREDVVRIKSQDLGAFRYLRQRDKEQEQQDLACLAKRDYTERRNGLAVLKNSGRKSTGRLKDNLKKLEDLLRQHRIIHSEWQDAAQVLLLFSHGLIAHICVDIYTGDILRMVFEKYLVGKLASEVITDAFFTRSHIVLAYNTNQLTVVHLQRPNARSQGPEKIANMDPRIFHVIIPGATERKLSRHLTVNASFDLFVVWTQSSQNEVYPWRPTIRDQDRANIHVFKIKGLQLESIAYCWSENDPLCVDFLRSSESQIITLEQKVSRKGDISAEICSYELAAGKMQRTAITSIPMGAQICSFAFSPDQEKLFLGSVDRNICLHDLVQQSTKYANQIEIVPNQCAWHCDSAMLCVANERSVLQCFDLALATIGHQLVSENVTPSSLLDLSHYFVAQPTLLSVAFSRKPDLSTFKHTYAQTDCLLLLVYEQGPLACMRIFGGTGMRGDIHNSGLTADVIADKYLRLQQPDRAVNVLAALNWETYGAMCLITLHKIANYVFFGGDQRRPRIELMARALKTFAHTLSEETKDEFSDQVYDLKRRFCFYLLRKNLFAEAFEIAQDVADYDIFMDLYNLTKCISSLSEFAQVAFSQAAAIIHEEDRANGNLSLTCDLRSESACSLSTCSDMLRGQGAGTAPETGLGASQPQSQQVLKNYVPPLPSFKSKVFNAEMIKINIPKPELRPPLPKVSIALTSEDYQKRLLQKKPTASILSNPANPAPTNGEAPATPAKSQTAEKNKVKFSDTIQVAVVPEIPRKEKPMPPKRNGYSRPAARHLTNPKKELADSLPLCHPNDEYLKDFNPITTNVTKPPIRRREEEPKSSSKGGNSSSSSSSIKVVHFGVV

binding [2]: binds
B4: human Intu (in homolog), yeast two-hybrid fusion (protein, UniProt Q9ULD6 1-942)
chain: MASVASCDSRPSSDELPGDPSSQEEDEDYDFEDRVSDSGSYSSASSDYDDLEPEWLDSVQKNGELFYLELSEDEEESLLPETPTVNHVRFSENEIIIEDDYKERKKYEPKLKQFTKILRRKRLLPKRCNKKNSNDNGPVSILKHQSNQKTGVIVQQRYKDVNVYVNPKKLTVIKAKEQLKLLEVLVGIIHQTKWSWRRTGKQGDGERLVVHGLLPGGSAMKSGQVLIGDVLVAVNDVDVTTENIERVLSCIPGPMQVKLTFENAYDVKRETSHPRQKKTQSNTSDLVKLLWGEEVEGIQQSGLNTPHIIMYLTLQLDSETSKEEQEILYHYPMSEASQKLKSVRGIFLTLCDMLENVTGTQVTSSSLLLNGKQIHVAYWKESDKLLLIGLPAEEVPLPRLRNMIENVIQTLKFMYGSLDSAFCQIENVPRLDHFFNLFFQRALQPAKLHSSASPSAQQYDASSAVLLDNLPGVRWLTLPLEIKMELDMALSDLEAADFAELSEDYYDMRRLYTILGSSLFYKGYLICSHLPKDDLIDIAVYCRHYCLLPLAAKQRIGQLIIWREVFPQHHLRPLADSSTEVFPEPEGRYFLLVVGLKHYMLCVLLEAGGCASKAIGSPGPDCVYVDQVKTTLHQLDGVDSRIDERLASSPVPCLSCADWFLTGSREKTDSLTTSPILSRLQGTSKVATSPTCRRTLFGDYSLKTRKPSPSCSSGGSDNGCEGGEDDGFSPHTTPDAVRKQRESQGSDGLEESGTLLKVTKKKSTLPNPFHLGNLKKDLPEKELEIYNTVKLTSGPENTLFHYVALETVQGIFITPTLEEVAQLSGSIHPQLIKNFHQCCLSIRAVFQQTLVEEKKKGLNSGDHSDSAKSVSSLNPVKEHGVLFECSPGNWTDQKKAPPVMAYWVVGRLFLHPKPQELYVCFHDSVTEIAIEIAFKLFFGLTL

— paper PMC5386880
